Results are given in words; binding and its absence hold for the method and conditions named. In cells and extracts the contact can be indirect. Some results given as binding are weak or reduced against the parent protein; the word gives no strength. Where a sequence is shown, tags or fusion partners need not be part of it.

For assay [1], the target named is T1, ROC5 expressed in rice protoplasts (ROC5-GFP and ROC5-His) (rice (Oryza sativa L.)) (UniProt Q6EPF0).
T1 sequence: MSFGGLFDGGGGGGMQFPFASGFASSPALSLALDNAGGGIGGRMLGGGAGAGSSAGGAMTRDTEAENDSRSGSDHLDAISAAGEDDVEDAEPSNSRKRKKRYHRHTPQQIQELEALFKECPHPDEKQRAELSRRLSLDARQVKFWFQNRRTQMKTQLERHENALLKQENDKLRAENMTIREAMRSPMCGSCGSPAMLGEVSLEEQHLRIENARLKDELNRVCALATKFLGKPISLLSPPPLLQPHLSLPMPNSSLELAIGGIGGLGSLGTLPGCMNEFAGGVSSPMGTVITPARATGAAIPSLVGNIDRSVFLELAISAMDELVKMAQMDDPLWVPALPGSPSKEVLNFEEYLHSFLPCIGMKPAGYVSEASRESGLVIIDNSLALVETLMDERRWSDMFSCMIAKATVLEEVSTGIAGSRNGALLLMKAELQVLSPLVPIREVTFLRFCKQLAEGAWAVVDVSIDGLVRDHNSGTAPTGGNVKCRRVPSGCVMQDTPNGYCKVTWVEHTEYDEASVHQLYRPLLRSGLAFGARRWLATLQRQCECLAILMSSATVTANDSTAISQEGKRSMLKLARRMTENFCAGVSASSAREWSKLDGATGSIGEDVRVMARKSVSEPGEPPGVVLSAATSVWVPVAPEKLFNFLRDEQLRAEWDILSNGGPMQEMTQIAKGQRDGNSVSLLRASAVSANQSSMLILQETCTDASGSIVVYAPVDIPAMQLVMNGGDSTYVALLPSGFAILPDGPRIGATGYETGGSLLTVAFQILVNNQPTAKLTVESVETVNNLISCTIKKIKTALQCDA
The assay can be described thus: co-IP; rice protoplasts transfected and incubated overnight; extract (150mM KCl, 50mM HEPES pH7.5, 0.4% Triton-X 100, 1mM DTT) with GFP-Trap magnetic beads 2 h at 4°C; immunoblot with anti-GFP, anti-Flag, anti-His; in Figure 4 also with a third co-transfected protein.

Assay [2] concerns the target T2, ROC8 BiFC fusions (ROC8-nYFP and ROC8-cYFP) (rice (Oryza sativa L.)) (UniProt Q69T58).
T2 sequence: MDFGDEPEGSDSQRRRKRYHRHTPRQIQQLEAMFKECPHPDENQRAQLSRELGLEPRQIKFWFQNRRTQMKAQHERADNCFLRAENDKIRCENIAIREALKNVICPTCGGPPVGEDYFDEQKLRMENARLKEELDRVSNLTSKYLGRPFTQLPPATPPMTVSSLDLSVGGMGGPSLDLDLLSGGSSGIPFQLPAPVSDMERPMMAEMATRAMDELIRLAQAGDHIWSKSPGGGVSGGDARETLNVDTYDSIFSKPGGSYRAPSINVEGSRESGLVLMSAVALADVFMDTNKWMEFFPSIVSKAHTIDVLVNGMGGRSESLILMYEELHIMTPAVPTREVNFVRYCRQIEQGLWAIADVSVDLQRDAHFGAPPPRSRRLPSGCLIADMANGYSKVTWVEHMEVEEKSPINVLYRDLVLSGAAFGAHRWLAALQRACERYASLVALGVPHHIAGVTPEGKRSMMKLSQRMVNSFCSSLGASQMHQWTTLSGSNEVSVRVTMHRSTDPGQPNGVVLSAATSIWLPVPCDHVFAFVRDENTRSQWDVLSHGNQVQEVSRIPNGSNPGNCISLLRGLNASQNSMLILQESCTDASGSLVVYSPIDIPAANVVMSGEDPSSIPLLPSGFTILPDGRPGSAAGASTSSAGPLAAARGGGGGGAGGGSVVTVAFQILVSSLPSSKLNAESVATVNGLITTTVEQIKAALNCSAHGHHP
In words: split reporter; competition: nYFP and cYFP fusions of one protein co-expressed in tobacco leaves with the other protein as a third, or with a truncated control (P6, X7).

Assay [3] concerns the target T3, ROC5 BiFC fusions (ROC5-nYFP and ROC5-cYFP) (rice (Oryza sativa L.)) (UniProt Q6EPF0).
T3 sequence: T1 sequence
The assay can be described thus: split reporter; nYFP and cYFP fusions co-infiltrated by Agrobacterium into N. benthamiana leaves with p19 and the nuclear marker D53-mCherry; confocal microscopy 48 to 72 h after infiltration.

In assay [4] the target is T3, ROC5 BiFC fusions (ROC5-nYFP and ROC5-cYFP) (rice (Oryza sativa L.)). The assay can be described thus: split reporter; competition: nYFP and cYFP fusions of one protein co-expressed in tobacco leaves with the other protein as a third, or with a truncated control (P6, X7).
For assay [5], the target named is ROC8 expressed in rice protoplasts (ROC8-Flag and ROC8-GFP) (rice (Oryza sativa L.)) (UniProt Q69T58). In words: co-IP; rice protoplasts transfected and incubated overnight; extract (150mM KCl, 50mM HEPES pH7.5, 0.4% Triton-X 100, 1mM DTT) with GFP-Trap magnetic beads 2 h at 4°C; immunoblot with anti-GFP, anti-Flag, anti-His; in Figure 4 also with a third co-transfected protein. (In general: A western blot detects proteins with antibodies after separation by electrophoresis.)

The target in assay [6] is T2, ROC8 BiFC fusions (ROC8-nYFP and ROC8-cYFP) (rice (Oryza sativa L.)). In words: split reporter; nYFP and cYFP fusions co-infiltrated by Agrobacterium into N. benthamiana leaves with p19 and the nuclear marker D53-mCherry; confocal microscopy 48 to 72 h after infiltration.

B1: ROC5 expressed in rice protoplasts (ROC5-GFP and ROC5-His) (protein, UniProt Q6EPF0 1-804)
chain: T1 sequence
As to B1, the binding result in assay [1] was “binds”.

B2: ROC5 co-expressed as competitor in the BiFC assay (protein, UniProt Q6EPF0 1-804)
chain: T1 sequence
Turning to B2, the binding result in assay [2] was “binds”.

B3: ROC5 BiFC fusions (ROC5-nYFP and ROC5-cYFP) (protein, UniProt Q6EPF0 1-804)
chain: T1 sequence
On to B3, for which the binding entry in assay [3] and in assay [4] was “binds” in each case.

B4: ROC8 expressed in rice protoplasts (ROC8-Flag and ROC8-GFP) (protein, UniProt Q69T58 1-710)
chain: T2 sequence
Turning to B4, the binding result in assay [1] and in assay [5] was “binds” throughout.

B5: ROC8 BiFC fusions (ROC8-nYFP and ROC8-cYFP) (protein, UniProt Q69T58 1-710)
chain: T2 sequence
With B5, the binding entry in assay [6], in assay [3] and in assay [2] was “binds” in each case.

B6: ROC8 co-expressed as competitor in the BiFC assay (protein, UniProt Q69T58 1-710)
chain: T2 sequence
With B6, the binding entry in assay [4] is “binds”.

Source of the values: paper PMC8633501.
